According to PubChem BioAssay AID720542 (National Center for Advancing Translational Sciences (NCATS), 2013):
In all, about 360,000 compounds went through this assay and about 740 (0.21%) were called active. The inconclusive results got no clear call from the source; some entries with a clear call stand among them for comparison. Calls come from the whole dose curve; as a rule, active = well fitted inhibition curve with a large enough effect; inconclusive = small, poorly fitted or top-dose-only effect; inactive = no such curve, though single readings can be large or run the other way. No potency is given beside an inconclusive call; the fits are too rough.

system: Plasmodium falciparum AMA1 (3D7) - RON2 peptide interaction; assay: qHTS for Inhibitors of AMA1-RON; Towards Development of Antimalarial Drug Lead: Primary Screen; conditions: AlphaScreen AMA1-biotinylated RON2 peptide binding; activity change, negative = inhibition: at 58.2 µM (top of the series) unless noted; note: nearly all actives have a fitted effect of over 45% in size;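 for activity change, negative = inhibition: 0% = vehicle wells and -100% = peptide control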
In short: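 AMA1 (3D7) with his tag at 25 nM final met compounds first, then biotinylated RON2 peptide at 25 nM; detection used donor plus acceptor beads, 10 µg/mL apiece, read by AlphaScreen after 30 min at room temperature.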
Potency is the fitted concentration of half-maximal effect; tags give direction and shape of the fitted curve.

| Compound | Potency | activity change, negative = inhibition |
| --- | --- | --- |
| COc1cccc(/C=N/N2CCN(c3ccncc3S(=O)(=O)N3CCCCC3)CC2)c1 | inconclusive [inhibitor, partial curve, poor fit] |  |
| COC(=O)c1ccc(/C=N/NC(=O)C2CC(=O)N(c3ccc(OC)cc3)C2)cc1 (stereo unspecified) |  | inconclusive: -8.42% [inhibitor] |
| COc1ccccc1C(=O)NCC(c1ccco1)N1CCc2ccccc21 (stereo unspecified) | inconclusive [inhibitor, partial curve] |  |
| CC1=N/C(=C/c2ccc([N+](=O)[O-])cc2)C(=O)N1c1ccc(Cl)cc1Cl | inconclusive [inhibitor, single point] |  |
| CCn1nc(C)c(CN2CCc3c([nH]c4ccccc34)C2c2ccc(F)c(OC)c2)c1C (stereo unspecified) | active: 39.8 µM |  |
| CC1=NN(c2ccccc2)C(=O)C1N=Nc1ccccc1 (stereo unspecified) | inconclusive [inhibitor, full curve] |  |
| Cc1ccnc(NS(=O)(=O)c2ccc(CC(C)C)cc2)c1 |  | inconclusive: -1.54% [inhibitor] |
| O=[N+]([O-])c1cccc(/C=N/N2CCN(Cc3ccc(Cl)cc3)CC2)c1 | inconclusive [inhibitor, partial curve] |  |
| CCOC(=O)C1(C)CCCN(C(=O)c2ccc(OC)cc2)C1 (stereo unspecified) | inactive |  |
| Cc1cc(C(=O)NNC(=O)c2ccc(Cl)c(S(N)(=O)=O)c2)c(C)o1 | inactive |  |
| COc1cccc(S(=O)(=O)Nc2ccc3c(c2)C(=O)N(C)C[C@H](OC)[C@H](C)CN[C@@H](C)CO3)c1 | inactive |  |
| Cc1nn(-c2ccccc2)c(C)c1/C=N/NC(=O)CSc1nnc(SCc2ccc(Cl)cc2)s1 | inactive |  |
| CCCc1cc(C(=O)O)c2ccccc2n1 | inactive |  |
| CNc1ccc2nc3ccccc3[n+](C)c2c1 | inconclusive [inhibitor, single point] |  |
| FC(F)(F)Oc1ccc(Nc2nc(N3CCOCC3)nc(N3CCOCC3)n2)cc1 | inactive |  |
| Cc1nnc(SCCN2C(=O)c3ccccc3C2=O)nc1C | inconclusive [inhibitor, full curve] |  |
| CCC(=O)N1CCc2cc(S(=O)(=O)N3CCN(c4ccccc4)CC3)ccc21 | inactive |  |
| CCOc1cc(C2NCc3ccccc3-n3cccc32)ccc1O (stereo unspecified) | inconclusive [inhibitor, single point] |  |
| C=CCN1C=C/C(=C\C=C(C#N)C#N)c2ccccc21 | active: 14.1 µM |  |
| O=[N+]([O-])c1ccc(C2CCCC/C2=N\OCc2cccc(F)c2)c([N+](=O)[O-])c1 (stereo unspecified) | inconclusive [inhibitor, partial curve] |  |
| Cc1ccc2oc(C(=O)N(Cc3ccc(N(C)C)cc3)C3CCS(=O)(=O)C3)c(C)c2c1 (stereo unspecified) | active: 28.2 µM |  |
| CCc1nc2ccc(C(=O)Nc3ccc(OC)c(OC)c3)cn2c1N(C)Cc1ccc(N(C)C)cc1 | active: 31.6 µM |  |
| Cc1ccc(/C=N/NC(=O)c2cccs2)cc1[N+](=O)[O-] | inactive |  |

| Compound | Potency | activity change, negative = inhibition |
| --- | --- | --- |
| Cc1ccc2oc(=O)c3cc(C(=O)NCCCN4CCCC(C)C4)sc3c2c1 (stereo unspecified) | inactive |  |
| COc1cccc(NC(=O)CN(C)C(=O)CCCc2nc3ccccc3c(=O)[nH]2)c1 | inactive |  |
| O=C(Nc1ccc2oc(-c3ccc4ccccc4c3)nc2c1)c1ccc2c(c1)OCCO2 | inconclusive [inhibitor, full curve, poor fit] |  |
| COc1ccc(CNCc2cc(C)c(OC)cc2C)c(OC)c1 | inconclusive [inhibitor, partial curve] |  |
| COc1cc(/C=C(\C#N)C(=O)Nc2ccc(SC(F)F)cc2)cc(OC)c1OC | inactive |  |
| O=[N+]([O-])c1cc(/C=N/OCc2c(Cl)cccc2Cl)ccc1N1CCOCC1 | inconclusive [inhibitor, partial curve] |  |
| COc1cc(NC2c3ccccc3C(=O)N2Cc2ccc3c(c2)OCO3)cc(OC)c1 (stereo unspecified) | inconclusive [inhibitor, single point] |  |
| O=C(Nc1ccc(C(=O)NC2CCCCC2)cc1)c1cncc(Br)c1 | inactive |  |
| COc1ccc(N2CCN(C(c3cccs3)C(C)NC(=O)c3ccc4c(c3)OCO4)CC2)cc1 (stereo unspecified) | inconclusive [inhibitor, partial curve] |  |
| CCN(CC)S(=O)(=O)c1ccc(-c2cn3cc(Cl)ccc3n2)cc1 | inactive |  |
| COC(=O)c1ccccc1N=Nc1c(C)noc1C |  | inconclusive: -34.1% [inhibitor] |
| Cc1ccc(O)c(C(=O)c2cnc3c(c2)c(C)nn3-c2ccccc2)c1 | inconclusive [inhibitor, partial curve] |  |
| COc1ccc(CN2CCN(C(=O)COc3ccc4ccccc4c3)CC2)c(OC)c1 | inconclusive [inhibitor, single point] |  |
| O=C1c2cccc3cccc(c23)C(=O)N1CCCN1CCN(c2ccc(F)cc2)CC1 | inconclusive [inhibitor, single point] |  |
| COc1ccc(OC)c(CN2CCN(C(=O)c3ccco3)CC2)c1 | inconclusive [inhibitor, partial curve] |  |
| O=C(CC1SCCNC1=O)Nc1cccc(Cl)c1 (stereo unspecified) | inactive |  |
| Cc1nc(N2CCCCC2)sc1C(=O)c1ccc(SCCO)c([N+](=O)[O-])c1 | inconclusive [inhibitor, single point] |  |
| Clc1ccc(SCc2csc(N3CCOCC3)n2)cc1 | inconclusive [inhibitor, partial curve] |  |
| COC(=O)c1cccc(C23CC4(C2)[C@H](CN(Cc2ccc(-c5ccccc5)cc2)[C@@H]4c2ccccc2)C3c2ccccc2)c1 (stereo partly specified) | inactive |  |
| Cc1ccc(C(=O)Oc2ccc(Br)cc2C(=S)N2CCOCC2)cc1 | inconclusive [inhibitor, partial curve, poor fit] |  |
| O=C(CN1CCN(c2ccccn2)CC1)Nc1ccc(F)cc1 | inconclusive [inhibitor, single point] |  |
| COc1ccc(NC(=O)COC(=O)C2CCCCC2)c([N+](=O)[O-])c1 | inconclusive [inhibitor, full curve] |  |
| Cc1c(C(=O)NCc2ccco2)sc(=O)n1Cc1ccc(S(C)(=O)=O)cc1 | inactive |  |
